# Test results reported in the supplement of paper PMC7826260.
# The other results are listed elsewhere or left out. Each Rep nickase domain was tested in vitro on the same pool of single strands for 1 h at 37 °C with 3 µM enzyme; only the middle of the 90-letter strands is printed. The score is log2 (uncut reads / reads without enzyme); uncut sequences lie near 0, cut ones below; no hit call is given. Reads are scaled to the total; values above 0 arise when much of the pool is cut.
# What was measured:
# Assay in all cases: uncleaved DNA left, log2 of reads against the no-enzyme library (log2 ratio); higher = less cleavage (more negative = more Rep cleavage of the k-mer); sequences stand for … in CTCGTCCG…ACCGGAGA
# [1] = tested on: T1, Rep nickase domain of Muscovy duck circovirus
# T1 sequence (protein, residues 1-111, tag omitted): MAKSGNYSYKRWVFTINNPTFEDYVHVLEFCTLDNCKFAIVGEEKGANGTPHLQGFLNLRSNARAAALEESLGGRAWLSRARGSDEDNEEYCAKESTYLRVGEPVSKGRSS
# Method: (§1)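 A pool of 90-nt single-stranded DNAs with seven random bases just before the constant AC of the nick site (name = the seven bases) was cut by 3 µM recombinant His6-SUMO-tagged Rep nickase domain (300 nM DNA, 50 mM HEPES pH 8.0, 50 mM NaCl, 1 mM MnCl2, 1 h, 37 °C, three replicates). Uncut DNA was amplified and sequenced.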
# [2] = tested on: T2, Rep nickase domain of banana bunchy top virus
# T2 sequence (protein, residues 1-94, tag omitted): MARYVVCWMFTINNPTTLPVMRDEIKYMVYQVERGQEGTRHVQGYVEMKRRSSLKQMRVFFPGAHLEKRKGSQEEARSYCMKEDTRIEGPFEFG
# Method: as §1
# [3] = tested on: T3, Rep nickase domain of cabbage leaf curl virus
# T3 sequence (protein, residues 1-116, tag omitted): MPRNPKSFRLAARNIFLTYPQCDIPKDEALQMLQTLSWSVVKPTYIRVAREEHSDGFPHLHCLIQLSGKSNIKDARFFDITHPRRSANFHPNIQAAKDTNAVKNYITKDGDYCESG
# Method: as §1
# [4] = tested on: T4, Rep nickase domain of chickpea chlorotic dwarf virus
# T4 sequence (protein, residues 1-124, tag omitted): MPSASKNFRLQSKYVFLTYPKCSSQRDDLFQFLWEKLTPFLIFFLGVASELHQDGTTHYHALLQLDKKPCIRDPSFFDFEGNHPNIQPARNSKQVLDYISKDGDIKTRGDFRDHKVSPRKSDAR
# Method: as §1
# [5] = tested on: T5, Rep nickase domain of faba bean necrotic yellows virus
# T5 sequence (protein, residues 1-98, tag omitted): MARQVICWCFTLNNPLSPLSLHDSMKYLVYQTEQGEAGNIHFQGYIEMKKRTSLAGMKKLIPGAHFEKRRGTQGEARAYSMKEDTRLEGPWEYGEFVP
# Method: as §1
# [6] = tested on: T6, Rep nickase domain of maize striate mosaic virus
# T6 sequence (protein, residues 1-117, tag omitted): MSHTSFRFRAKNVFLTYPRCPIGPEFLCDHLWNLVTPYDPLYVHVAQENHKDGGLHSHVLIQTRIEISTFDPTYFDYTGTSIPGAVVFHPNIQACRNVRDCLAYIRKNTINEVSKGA
# Method: as §1
# [7] = tested on: T7, Rep nickase domain of porcine circovirus 2
# T7 sequence (protein, residues 2-116, tag omitted): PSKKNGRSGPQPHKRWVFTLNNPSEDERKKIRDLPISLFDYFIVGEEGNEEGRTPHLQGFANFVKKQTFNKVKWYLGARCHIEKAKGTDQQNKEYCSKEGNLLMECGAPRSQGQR
# Method: as §1
# [8] = tested on: T8, Rep nickase domain of tomato golden mosaic virus
# T8 sequence (protein, residues 1-124, tag omitted): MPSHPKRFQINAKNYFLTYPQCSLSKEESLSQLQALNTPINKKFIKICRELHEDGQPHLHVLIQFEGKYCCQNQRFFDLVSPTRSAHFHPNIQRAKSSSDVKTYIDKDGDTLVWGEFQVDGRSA
# Method: as §1
# [9] = tested on: T9, Rep nickase domain of tomato yellow leaf curl virus
# T9 sequence (protein, residues 1-136, tag omitted): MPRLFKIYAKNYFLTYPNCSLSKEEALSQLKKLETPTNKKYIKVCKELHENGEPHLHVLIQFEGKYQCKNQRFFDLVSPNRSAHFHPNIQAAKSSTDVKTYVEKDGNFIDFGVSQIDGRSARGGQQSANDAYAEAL
# Method: as §1
# [10] = tested on: T10, Rep nickase domain of wheat dwarf virus
# T10 sequence (protein, residues 1-137, tag omitted): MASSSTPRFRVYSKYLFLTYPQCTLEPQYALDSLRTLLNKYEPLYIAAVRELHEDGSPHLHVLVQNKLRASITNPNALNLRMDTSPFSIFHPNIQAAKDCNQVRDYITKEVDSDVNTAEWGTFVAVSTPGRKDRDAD
# Method: as §1
Sequence,uncleaved DNA left (log2) [1],uncleaved DNA left (log2) [2],uncleaved DNA left (log2) [3],uncleaved DNA left (log2) [4],uncleaved DNA left (log2) [5],uncleaved DNA left (log2) [6],uncleaved DNA left (log2) [7],uncleaved DNA left (log2) [8],uncleaved DNA left (log2) [9],uncleaved DNA left (log2) [10]
CGATACT,-3.3,-0.143,-0.4,-2.79,0.0229,-0.468,-3.27,-0.145,-0.0355,-0.247
ACCAGTA,0.0398,0.129,-0.297,-1.15,0.0194,-1.13,0.103,0.07,-0.0242,0.0293
GTCGCAT,-0.0565,0.133,0.522,1.15,-0.116,1.76,0.142,0.125,-0.00186,0.207
CACAACG,0.0435,0.0341,-0.92,-0.303,3.79e-05,-1.02,0.00776,-0.0252,-0.099,-0.168
TGATCGA,0.0769,-0.0401,-0.242,-0.575,-0.0177,-0.953,-0.0137,0.00674,-0.00758,-0.0265
CTAGGTG,0.13,0.0694,-0.451,-0.299,0.0282,-0.752,0.133,0.124,0.0832,0.0335
GCATGCC,0.0218,0.0274,-0.216,-0.0917,0.0175,-0.718,0.162,-0.022,0.0844,-0.0513
TTGATGT,0.146,0.0241,-0.0942,-0.335,0.0728,-0.857,0.0411,-0.0469,0.0276,-0.00618
TAGACTA,0.0899,0.0996,0.0368,-0.376,0.151,1.33,-0.409,-0.0349,0.0733,0.15
CCATTCA,0.024,0.136,-0.345,-1.03,0.051,-1.01,0.0676,0.0991,0.239,0.0793
TTTTACC,-3.25,-0.275,-0.576,-2.43,-0.767,-0.121,-3.24,-0.134,0.1,-0.755
GCGGCAT,0.021,0.0891,0.782,1.86,-0.128,2.21,0.16,-0.0781,0.00103,0.0976
TAAAATA,-0.0505,-0.109,-2.96,-2.86,-0.0686,-1.15,-0.194,-0.341,-0.0671,-2
CTGGCAC,-0.0636,-0.0786,-0.0162,-0.0403,0.0189,-0.418,0.0285,-0.152,-0.132,-0.174
GAGCTGG,-0.0368,-0.0816,0.112,0.782,-0.0166,0.765,0.0652,-0.0239,-0.1,-0.00356
GCCTGAC,-0.0222,-0.0902,0.0171,0.531,-0.155,0.432,0.0462,-0.0539,-0.12,-0.0222
TGTCCCA,-0.164,0.0468,0.242,0.00169,-0.108,0.544,-0.47,-0.024,0.0594,-0.0595
ACATTCT,-0.912,0.0562,-0.552,-2.54,-0.0289,-1.01,-1.53,-0.0256,-0.0818,-0.0386
CGAAAAA,0.0687,0.0335,0.0169,-0.0627,-0.0223,-0.52,0.228,-0.00669,0.118,0.135
ATCTGCT,-0.333,-0.134,-0.501,-0.745,0.0232,-0.818,-2.47,-0.0766,0.0412,-0.162

Sequence,uncleaved DNA left (log2) [1],uncleaved DNA left (log2) [2],uncleaved DNA left (log2) [3],uncleaved DNA left (log2) [4],uncleaved DNA left (log2) [5],uncleaved DNA left (log2) [6],uncleaved DNA left (log2) [7],uncleaved DNA left (log2) [8],uncleaved DNA left (log2) [9],uncleaved DNA left (log2) [10]
GAGTAAC,0.0206,0.11,0.214,0.231,0.0663,1.26,-1.11,0.11,0.0799,0.0903
AAGTTCC,-0.177,-0.0509,-0.044,-0.553,-0.0574,-0.0755,-2.89,-0.0476,-0.0518,-0.00406
TTATGCT,-3.16,-0.0895,-3.19,-2.84,0.0573,-2.22,-2.84,-0.871,0.153,-0.68
TCGAGGC,0.00513,0.015,0.16,0.27,-0.085,-0.301,0.0251,0.0249,0.0119,-0.126
ACCGACG,0.0655,0.0261,-0.66,-0.343,0.0282,-0.778,0.208,0.0392,-0.028,-0.0505
GGTATTT,-0.0305,0.0257,0.484,0.883,-0.145,1.82,-0.253,-0.0666,0.0176,0.0763
ATATGCG,-0.141,-0.0706,0.227,1.55,-0.0437,1.56,0.101,-0.139,-0.173,-0.125
ACCCCAG,-0.0666,-0.113,-0.789,-0.281,-0.125,-1.06,0.0189,-0.124,-0.215,-0.164
TAGTCAG,-0.0147,0.0513,-0.743,-0.666,0.0674,-1.21,-0.883,0.121,0.0178,-0.048
CGGGTCG,0.107,0.0615,-0.359,0.185,0.114,-0.451,0.248,0.0476,0.0431,-0.0482
CTCACCG,-0.191,-0.135,-0.88,-0.517,-0.145,-0.99,0.00597,-0.124,-0.111,-0.274
TCTGCGT,0.0341,-0.162,-0.806,-0.0852,-0.00778,-0.943,-0.0981,-0.216,-0.15,-0.154
CAGACTC,0.0167,-0.0196,0.136,0.444,0.0147,0.555,-0.204,-0.0339,-0.0223,0.0744
TGGTTTA,-0.129,-0.0897,0.22,-0.0806,0.0517,0.826,-0.107,-0.0196,0.00831,0.0866
ACTAGAT,-0.176,-0.0379,-0.172,0.0156,-0.0393,-0.305,-0.305,-0.0408,-0.254,-0.0318
ATCACAA,-0.148,0.00506,-0.0975,-0.29,-0.0328,-0.848,-0.0113,-0.00443,-0.11,0.0568
GCGGCCG,-0.00514,-0.0401,-0.534,-0.372,0.0772,-0.468,0.0626,0.0099,-0.114,-0.0931
TCGCGGG,0.132,-0.0378,0.0846,0.128,0.014,-0.145,0.185,0.162,0.255,0.173
ACACACT,-0.0953,-0.11,-0.745,-2.68,0.0521,-0.995,-0.257,0.0204,-0.144,-0.424
ATCTAAT,-1.94,-0.819,-0.282,-0.968,-0.182,-0.561,-3.34,0.0453,-0.0942,-0.0793

Sequence,uncleaved DNA left (log2) [1],uncleaved DNA left (log2) [2],uncleaved DNA left (log2) [3],uncleaved DNA left (log2) [4],uncleaved DNA left (log2) [5],uncleaved DNA left (log2) [6],uncleaved DNA left (log2) [7],uncleaved DNA left (log2) [8],uncleaved DNA left (log2) [9],uncleaved DNA left (log2) [10]
TTCTGAA,0.0386,-0.0118,0.123,-0.108,-0.104,0.112,-0.0938,-0.0111,-0.14,-0.0119
AGGAAGC,0.188,0.126,0.14,0.264,0.00382,-0.42,0.214,0.133,0.13,0.0853
CAGTAAT,-2.2,-3.22,-0.588,-2.56,-3.2,0.22,-3.86,-0.0985,0.103,-0.0553
GATGACA,0.0336,0.0358,0.498,0.98,-0.00223,1.63,0.107,0.00901,0.0634,0.162
TACCCGT,0.0166,-0.0815,-0.556,-2.26,-0.0245,-0.958,-0.738,-0.0857,0.0204,-0.0458
TCCCGTC,-0.00744,-0.049,0.293,-0.0388,0.0381,-0.477,-0.0641,-0.0965,-0.0445,-0.0701
ATACTCA,0.0863,0.0749,-0.0895,-1.53,0.0322,-0.503,-0.0242,0.0865,0.0696,0.0964
GGGCCAC,0.0334,0.122,0.768,1.83,-0.107,2.13,0.0798,-0.0227,-0.169,0.0349
ACAGGCG,-0.0649,0.073,0.391,1.77,0.0735,1.79,0.175,0.00975,0.0863,-0.0225
AACGGAA,0.0752,0.011,0.274,1.1,-0.12,1.22,0.127,0.0146,-0.095,0.0794
CGTTCGG,-0.0269,-0.0678,0.202,0.942,-0.113,1.16,-0.0615,-0.0474,-0.104,-0.101
ATTATCT,-0.398,-0.0255,-0.0772,-2.28,0.0626,-0.674,-3.29,0.0327,0.124,0.0323
CAGTCTC,-0.136,-0.438,-0.3,-0.326,-0.53,-0.058,-3.34,-0.2,-0.118,-0.164
CCAATCA,-0.0779,0.12,0.0484,-0.436,0.0649,-0.0655,0.00686,-0.0301,0.0814,0.131
CCAACGC,-0.0263,-0.166,-0.209,-0.93,0.0132,-1,0.11,-0.133,-0.109,-0.14
AAAGAGC,0.0585,0.0365,-0.147,-0.197,-0.0491,-0.889,0.0945,0.0257,0.0591,-0.0353
TCCTGTG,0.0872,0.00522,-0.619,-0.552,0.0433,-0.916,0.149,-0.166,-0.1,0.0181
CGAACAC,-0.00258,-0.0728,0.0853,-0.164,0.115,-0.194,-0.0417,-0.082,0.0211,0.133
